# According to article PMC11869525:
# Results are given in words; binding and its absence hold for the method and conditions named. Some results given as binding are weak or reduced against the parent protein; the word gives no strength.
# What was measured:
# [1] = molecular target: theta (θ) subunit of the Pol III core, His-tagged (E. coli) (UniProt P0ABS8); assay: co-purification; α, His-θ and ε co-expressed in E. coli Acella2; lysate on His-Trap HP, then Hi-Trap Heparin HP, then Superdex 200 16/600 size exclusion
# [2] = molecular target: Pol III α-subunit Y1119A, with a 10X histidine tag on its N-terminus (E. coli) (UniProt P10443); assay: pull-down; His10-Pol III-α held on HisPur Ni-NTA resin; 1:2 molar ratio of τ-CLC and Pol III-α; rocked at 4 °C for 30 min; binding buffer 20 mM sodium phosphate, 0.5 M NaCl, 20 mM imidazole, pH 7.4; 13 washes; elution with 500 mM imidazole; Western blot with antibodies to α or τ; both purified
# [3] = molecular target: Pol III α-subunit, WT, with a 10X histidine tag on its N-terminus (E. coli) (UniProt P10443); assay: as above
# [4] = molecular target: Pol III α-subunit L1097/8S, with a 10X histidine tag on its N-terminus (E. coli) (UniProt P10443); assay: as above
# [5] = molecular target: Pol III α-subunit L1128S, with a 10X histidine tag on its N-terminus (E. coli) (UniProt P10443); assay: as above
# [6] = molecular target: Pol III α-subunit L1097S, with a 10X histidine tag on its N-terminus (E. coli) (UniProt P10443); assay: as above
substance,measurement,setting,value
Pol III α-subunit L1097/8S of the Pol III core (αεθ) (from UniProt P10443 1-1160) (enzyme),binding,[1],binds
Pol III α-subunit L1097S of the Pol III core (αεθ) (from UniProt P10443 1-1160) (enzyme),binding,[1],binds
Pol III α-subunit L1128S of the Pol III core (αεθ) (from UniProt P10443 1-1160) (enzyme),binding,[1],binds
Pol III α-subunit Y1119A of the Pol III core (αεθ) (from UniProt P10443 1-1160) (enzyme),binding,[1],binds
clamp loader complex τ3δδ'ψχ (from UniProt P06710 1-643; P28630 1-343; P28631 1-334; P28632 1-137; P28905 1-147),binding,[2],no binding
same,binding,[3],binds
same,binding,[4],no binding
same,binding,[5],no binding
same,binding,[6],binds weakly
